Reference: article PMC3819392
No constants are given. Whether binding was seen depends on the method and setting. In cells and extracts the contact can be indirect. Some results given as binding are weak or reduced against the parent protein; the word gives no strength.

By UniProt entry, the sequences of proteins in these tests, tags left out.
UniProt P27986: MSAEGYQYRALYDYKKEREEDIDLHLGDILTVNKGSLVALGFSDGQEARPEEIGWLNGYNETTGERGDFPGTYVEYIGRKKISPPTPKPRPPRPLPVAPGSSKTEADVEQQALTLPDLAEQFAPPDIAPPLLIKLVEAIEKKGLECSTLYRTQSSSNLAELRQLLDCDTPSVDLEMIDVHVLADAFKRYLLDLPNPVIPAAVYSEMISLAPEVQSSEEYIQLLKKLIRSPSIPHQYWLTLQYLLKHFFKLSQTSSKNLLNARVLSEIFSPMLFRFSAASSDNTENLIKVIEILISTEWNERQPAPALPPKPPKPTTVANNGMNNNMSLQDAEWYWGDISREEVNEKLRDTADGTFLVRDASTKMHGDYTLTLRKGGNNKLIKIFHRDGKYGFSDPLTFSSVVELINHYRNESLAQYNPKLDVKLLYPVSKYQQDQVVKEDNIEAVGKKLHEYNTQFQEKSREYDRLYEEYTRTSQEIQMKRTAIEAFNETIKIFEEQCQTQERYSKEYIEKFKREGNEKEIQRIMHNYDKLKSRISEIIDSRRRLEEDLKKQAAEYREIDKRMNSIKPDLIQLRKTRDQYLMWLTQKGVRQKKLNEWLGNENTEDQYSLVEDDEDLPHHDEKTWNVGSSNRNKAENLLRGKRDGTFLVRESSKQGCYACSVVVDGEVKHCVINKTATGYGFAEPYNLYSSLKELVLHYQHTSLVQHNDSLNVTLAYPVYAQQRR
UniProt P42338: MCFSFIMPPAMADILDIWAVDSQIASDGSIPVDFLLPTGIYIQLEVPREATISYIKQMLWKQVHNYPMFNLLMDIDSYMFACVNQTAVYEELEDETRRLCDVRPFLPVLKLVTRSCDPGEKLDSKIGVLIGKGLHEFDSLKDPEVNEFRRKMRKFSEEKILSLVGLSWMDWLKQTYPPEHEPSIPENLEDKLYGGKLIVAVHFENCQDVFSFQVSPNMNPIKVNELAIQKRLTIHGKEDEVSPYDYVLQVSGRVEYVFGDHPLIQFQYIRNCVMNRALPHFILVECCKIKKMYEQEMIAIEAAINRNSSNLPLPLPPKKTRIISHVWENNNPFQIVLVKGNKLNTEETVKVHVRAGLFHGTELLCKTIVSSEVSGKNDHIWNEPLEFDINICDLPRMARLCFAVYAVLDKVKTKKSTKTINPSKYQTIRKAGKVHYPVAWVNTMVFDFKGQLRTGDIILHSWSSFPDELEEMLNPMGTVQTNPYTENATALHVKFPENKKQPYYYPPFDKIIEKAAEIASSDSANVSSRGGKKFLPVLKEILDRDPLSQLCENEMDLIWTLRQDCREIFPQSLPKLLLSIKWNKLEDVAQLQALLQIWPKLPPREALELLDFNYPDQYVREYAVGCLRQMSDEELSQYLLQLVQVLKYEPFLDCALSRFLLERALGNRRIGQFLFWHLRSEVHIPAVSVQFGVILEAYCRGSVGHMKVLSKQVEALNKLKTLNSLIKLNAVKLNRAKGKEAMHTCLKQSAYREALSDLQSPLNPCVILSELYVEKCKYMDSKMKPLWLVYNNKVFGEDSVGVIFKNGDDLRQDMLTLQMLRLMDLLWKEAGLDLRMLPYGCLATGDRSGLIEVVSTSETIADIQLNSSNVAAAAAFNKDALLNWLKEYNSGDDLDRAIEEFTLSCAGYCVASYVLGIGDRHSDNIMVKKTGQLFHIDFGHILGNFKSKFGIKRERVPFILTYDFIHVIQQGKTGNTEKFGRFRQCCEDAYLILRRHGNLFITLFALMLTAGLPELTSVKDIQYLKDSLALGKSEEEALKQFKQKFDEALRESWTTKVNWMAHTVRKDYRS

Target: T1, HSP20 (HSPB6), wild-type human, overexpressed in HuH7 cells (human) (UniProt O14558)
T1 sequence: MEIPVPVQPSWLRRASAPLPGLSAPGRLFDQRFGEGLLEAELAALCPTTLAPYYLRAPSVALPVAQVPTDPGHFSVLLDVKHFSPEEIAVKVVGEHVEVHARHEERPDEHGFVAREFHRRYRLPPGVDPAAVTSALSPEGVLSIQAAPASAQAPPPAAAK
Test: co-IP; Lysates of HSP20-overexpressing (or empty vector) HuH7 cells in TNE buffer (10 mM Tris-HCl pH 7.8, 1% Nonidet P-40, 150 mM NaCl, 1 mM EDTA, 1 mM DTT); antibody overnight at 4°C, Dynabeads protein A; Western blot; IP with antibodies to the partner or to HSP20

| binding | Substance |
| --- | --- |
| binds | PI3K p85 regulatory subunit, endogenous in HuH7 cells (from UniProt P27986 1-724) |
| binds | PI3K p110β catalytic subunit, endogenous in HuH7 cells (from UniProt P42338 1-1070) |
